Assay results reported in the supplement of paper PMC7826260.
Some of the results follow. Each Rep nickase domain was tested in vitro on the same pool of single strands (3 µM enzyme, 1 h, 37 °C); shown is the middle of each 90-letter strand. Numbers give uncut DNA relative to the enzyme-free pool, as log2; uncut sequences lie near 0, cut ones below; no hit call is given. Shares of all reads are compared; values above 0 arise when much of the pool is cut.

Key:
Experiment in all cases: uncleaved DNA left, log2 of reads against the no-enzyme library (log2 ratio); higher = less cleavage (more negative = more Rep cleavage of the k-mer); sequences stand for … in CTCGTCCG…ACCGGAGA
[1] = system: T1, Rep nickase domain of Muscovy duck circovirus
T1 sequence (residues 1-111 of Rep, tag left off): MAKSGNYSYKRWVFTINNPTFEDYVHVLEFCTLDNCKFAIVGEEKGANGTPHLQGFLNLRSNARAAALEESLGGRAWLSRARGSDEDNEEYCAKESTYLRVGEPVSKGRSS
Experimental: (§1)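 A pool of 90-nt single-stranded DNAs with seven random bases just before the constant AC of the nick site (name = the seven bases) was cut by 3 µM recombinant His6-SUMO-tagged Rep nickase domain (300 nM DNA, 50 mM HEPES pH 8.0, 50 mM NaCl, 1 mM MnCl2, 1 h, 37 °C, three replicates). Uncut DNA was amplified and sequenced.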

[2] = system: T2, Rep nickase domain of banana bunchy top virus
T2 sequence (residues 1-94 of Rep, tag left off): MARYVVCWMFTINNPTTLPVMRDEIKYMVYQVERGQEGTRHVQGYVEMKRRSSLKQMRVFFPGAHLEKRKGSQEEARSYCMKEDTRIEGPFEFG
Experimental: as §1

[3] = system: T3, Rep nickase domain of cabbage leaf curl virus
T3 sequence (residues 1-116 of Rep, tag left off): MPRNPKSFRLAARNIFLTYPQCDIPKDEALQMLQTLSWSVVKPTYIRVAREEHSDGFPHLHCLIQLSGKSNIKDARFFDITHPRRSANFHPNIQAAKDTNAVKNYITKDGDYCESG
Experimental: as §1

[4] = system: T4, Rep nickase domain of chickpea chlorotic dwarf virus
T4 sequence (residues 1-124 of Rep, tag left off): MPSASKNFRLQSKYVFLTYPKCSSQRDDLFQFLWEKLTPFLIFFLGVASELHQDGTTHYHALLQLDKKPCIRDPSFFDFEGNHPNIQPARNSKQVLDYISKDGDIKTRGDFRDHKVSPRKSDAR
Experimental: as §1

[5] = system: T5, Rep nickase domain of faba bean necrotic yellows virus
T5 sequence (residues 1-98 of Rep, tag left off): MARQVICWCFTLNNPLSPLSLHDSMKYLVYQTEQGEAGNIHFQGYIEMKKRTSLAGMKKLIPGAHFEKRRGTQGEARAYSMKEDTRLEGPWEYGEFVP
Experimental: as §1

[6] = system: T6, Rep nickase domain of maize striate mosaic virus
T6 sequence (residues 1-117 of Rep, tag left off): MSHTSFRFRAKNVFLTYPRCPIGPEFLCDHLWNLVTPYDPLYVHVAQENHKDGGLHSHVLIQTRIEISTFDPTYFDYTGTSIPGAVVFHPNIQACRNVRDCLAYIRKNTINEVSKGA
Experimental: as §1

[7] = system: T7, Rep nickase domain of porcine circovirus 2
T7 sequence (residues 2-116 of Rep, tag left off): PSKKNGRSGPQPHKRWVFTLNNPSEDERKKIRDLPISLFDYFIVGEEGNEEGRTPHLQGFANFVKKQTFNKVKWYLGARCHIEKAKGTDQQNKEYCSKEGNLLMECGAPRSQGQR
Experimental: as §1

[8] = system: T8, Rep nickase domain of tomato golden mosaic virus
T8 sequence (residues 1-124 of Rep, tag left off): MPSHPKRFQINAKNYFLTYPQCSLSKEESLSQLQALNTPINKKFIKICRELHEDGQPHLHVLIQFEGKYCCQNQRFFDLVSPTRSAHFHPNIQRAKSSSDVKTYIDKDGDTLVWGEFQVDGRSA
Experimental: as §1

[9] = system: T9, Rep nickase domain of tomato yellow leaf curl virus
T9 sequence (residues 1-136 of Rep, tag left off): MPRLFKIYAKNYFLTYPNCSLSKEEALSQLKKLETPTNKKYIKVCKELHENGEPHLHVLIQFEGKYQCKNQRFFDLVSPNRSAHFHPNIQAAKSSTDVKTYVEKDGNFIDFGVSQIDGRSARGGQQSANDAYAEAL
Experimental: as §1

[10] = system: T10, Rep nickase domain of wheat dwarf virus
T10 sequence (residues 1-137 of Rep, tag left off): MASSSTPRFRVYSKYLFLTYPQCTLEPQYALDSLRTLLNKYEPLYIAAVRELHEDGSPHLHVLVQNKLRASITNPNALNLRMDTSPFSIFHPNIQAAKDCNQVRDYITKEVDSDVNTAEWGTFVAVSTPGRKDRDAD
Experimental: as §1

Sequence	uncleaved DNA left (log2) [1]	uncleaved DNA left (log2) [2]	uncleaved DNA left (log2) [3]	uncleaved DNA left (log2) [4]	uncleaved DNA left (log2) [5]	uncleaved DNA left (log2) [6]	uncleaved DNA left (log2) [7]	uncleaved DNA left (log2) [8]	uncleaved DNA left (log2) [9]	uncleaved DNA left (log2) [10]
CTGAAGG	0.131	-0.0604	0.151	0.919	0.112	0.3	0.104	0.1	-0.154	-0.00265
TACCTGA	-0.0182	-0.0654	-0.0352	-0.775	-0.0648	0.0513	-0.368	-0.0215	-0.039	-0.0453
TGTCAAC	0.103	0.21	0.533	0.602	0.094	1.48	0.123	0.156	0.107	0.131
GCTGCTT	-0.0921	-0.195	-0.208	-0.637	-0.0682	0.187	-0.145	-0.0164	-0.101	-0.0317
AGAAGCA	0.0118	0.029	-0.0121	-0.365	0.0868	-0.667	-0.374	0.103	0.02	0.0638
TACTCCA	-0.983	-0.317	-0.378	-2.39	-0.2	-0.127	-2.83	-0.245	-0.0564	-0.0781
CTGCCCT	0.0516	0.0332	-0.0141	-1.19	-0.029	-0.235	-0.365	-0.0133	0.103	-0.00647
GGATAAT	-0.0987	0.0981	0.741	1.75	-0.132	2.09	-1.07	0.131	0.0811	0.136
CAAGGGC	0.00137	0.0232	0.0327	0.26	-0.0666	-0.379	-0.0527	0.0278	-0.0612	-0.0779
AAAAATC	0.0096	-0.0595	-0.313	-0.795	0.0231	-0.767	-0.0587	-0.0271	-0.0352	-0.0546
CACACTC	-0.0739	-0.14	-0.271	-1.02	0.0183	-0.651	-0.00992	-0.0661	-0.205	-0.0363
CTAAGAA	0.167	0.206	-0.0806	-0.954	0.101	-0.72	0.156	0.126	0.00153	0.0351
CATGTTG	0.209	0.0981	-0.412	-0.412	0.0496	-0.758	0.288	0.0277	0.136	-0.0155
CGGCGGT	0.0827	-0.192	-0.0028	0.298	-0.0384	0.453	0.0686	0.0487	-0.183	-0.0822
GCAACCT	-0.0287	0.119	-0.0931	-1.49	-0.0893	-0.026	-0.868	-0.0664	0.0669	0.015
